Experimental findings from PubChem BioAssay AID485344 (National Center for Advancing Translational Sciences (NCATS), 2010) are described below.

Out of some 340,000 compounds screened, about 6,900 (2%) were called active. Cut-off read from the data, not from the text of the source: active = inhibition above about 30%; inactive = below that, where a call was filed. Only a part is listed here, and it is no random draw. Entries without a call were filed so in the source.

UniProt P14416, sequence (P14416 whole entry, looked up): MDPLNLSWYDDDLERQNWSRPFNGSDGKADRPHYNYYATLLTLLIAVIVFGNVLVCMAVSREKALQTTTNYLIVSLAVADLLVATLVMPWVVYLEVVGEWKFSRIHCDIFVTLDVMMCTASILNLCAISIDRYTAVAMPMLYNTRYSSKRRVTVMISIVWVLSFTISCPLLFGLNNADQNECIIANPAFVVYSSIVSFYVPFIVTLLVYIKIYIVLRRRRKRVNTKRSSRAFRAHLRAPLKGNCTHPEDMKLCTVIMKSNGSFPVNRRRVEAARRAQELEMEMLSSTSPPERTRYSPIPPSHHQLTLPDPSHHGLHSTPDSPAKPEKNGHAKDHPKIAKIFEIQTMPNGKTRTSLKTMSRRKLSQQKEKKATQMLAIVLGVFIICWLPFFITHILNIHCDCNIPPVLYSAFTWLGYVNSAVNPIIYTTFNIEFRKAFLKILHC

This experiment addresses D(2) dopamine receptor (Homo sapiens) (UniProt P14416). Kind of experiment: HTS Assay for Allosteric Antagonists of the Human D2 Dopamine Receptor: Primary Screen for Antagonists. Note: 0% is about no effect. Conditions: HEK293 TREx D2 cells, calcium flux, dopamine EC80; at 10 µM; stronger effect = higher value. Summed up:
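Measurement of antagonist activity uses fluorescent calcium dye in inducible HEK293 T-REx D2 cells: 10 s baseline, compound addition with 180 s read, EC80 dopamine addition with a further 180 s read.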
In general terms: Calcium flux is commonly read through the fluorescence of an indicator in the cells.
Turning to `Cc1ccc(CSc2cn(CC(=O)N3CCCC3)c3ccccc23)cc1`, the inhibition (as a rule, the relative decrease from the control value, in per cent) was -1.84%.
On to `CCn1c(=O)sc2cc(NS(=O)(=O)c3ccc(F)c(C)c3)ccc21`, for which the inhibition is -7.72%.
As for `O=C(CCS(=O)(=O)c1cc(Br)cc2c1N(C(=O)C1CC1)CC2)NCc1ccc(Cl)cc1`, the figure is 17.7%; as for `O=C(Nc1cc(-c2nc3ccccc3o2)ccc1Cl)c1ccc(N2CCCCC2)c([N+](=O)[O-])c1`, 11.2%.
Next, `O=S(=O)(Nc1nc2n(n1)C(c1ccc(F)cc1)C=C(c1ccccc1)N2)c1ccccc1` (stereo not drawn): -5.18%.
Next, `Cc1ccc2ncc(C(=O)Nc3ccc(F)cc3F)c(=O)n2c1`: 12.3%; `CC(=O)c1ccc(N2CCN(c3ccc(NC(=O)c4ccc(F)cc4)cc3C(=O)O)CC2)cc1`: -11.1%.
With `Cc1cc(C)c2c(=O)cc(C(=O)Nc3ccccc3C(F)(F)F)oc2c1`, the inhibition is -2.34%.
With `CCc1ccc(CNC(=O)c2ccc(NC(=O)N3CC(C)Sc4ccccc43)cc2)cc1` (stereo not drawn), the inhibition worked out at 22.5%.
As for `Cc1cccc(CSc2nnc([C@@H]3CCCN3C(=O)OC(C)(C)C)o2)c1`, the figure is active: 35.6%; as for `CC(C)(C)c1ccc(C(=O)NCC(c2cccs2)S(=O)(=O)c2ccccc2)cc1` (stereo not drawn), 2.14%.
For the molecule `Cc1cc(NC(=O)CCS(=O)(=O)c2cc3c4c(c2)CCN4C(=O)CC3)ccc1Br`, the inhibition amounted to 8.41%.
Next, `COc1ccc(NC(=O)C(C)n2nc(-c3ccc(C)c(C)c3)ccc2=O)cc1OC` (stereo not drawn): 5.56%; `CCOC(=O)c1c(C)[nH]c(C)c1S(=O)(=O)N1CCC(C(=O)N2CCN(c3ccccc3F)CC2)CC1`: -8.67%; `COc1cccc(NC(=O)CSC2=Nc3ccccc3C3=NC(CC(=O)NC4CCCCC4)C(=O)N23)c1` (stereo not drawn): -13.8%.
For the molecule `Cc1ccc(-n2c(SCc3cccc(F)c3)nc3[nH]ncc3c2=O)cc1C`, the inhibition is -25%.
As for `COc1ccc(C2CC(=O)c3cc(-c4nc(-c5ccc(Cl)cc5)c(C)s4)c(=O)[nH]c3C2)cc1` (stereo not drawn), the figure is 4.69%.
Next, `COc1cc(OC)c(OC)cc1/C=C/c1nc2cc3ccccc3cc2c(=O)n1-c1ccc(F)cc1F`: -28.2%; `Cc1ccc2c(c1)-c1cc(C)nn1C(c1cc(Br)ccc1O)N2` (stereo not drawn): 12.2%.
Next, `O=C(Cc1ccccc1)N(Cc1cccnc1)c1nc2c(F)cc(F)cc2s1`: 10.2%; `COc1ccc(-c2cc(C)no2)cc1S(=O)(=O)N1CCOc2ccccc21`: -2.8%; `Cc1cccc(N2CCN(C(=O)CCc3nnc4n(CC(C)C)c(=O)c5ccccc5n34)CC2)c1C`: -10.9%.
`COc1ccc(-c2cn3c(n2)sc2cc(C(=O)Nc4ccc(C)c(C)c4)ccc23)cc1`: the inhibition is -9.43%.
As for `CCOC(=O)c1c(C)oc2ccc(N(C(=O)Oc3ccccc3)S(=O)(=O)c3ccc(CC)cc3)cc12`, the figure is 11.4%; as for `CCc1ccccc1NC(=O)CN(Cc1ccccc1)S(=O)(=O)c1ccc(Br)cc1`, 8.89%.
Next, `Cc1cccc(OC(=O)CSc2nnc(CNC(=O)c3ccccc3)o2)c1C`: 6.68%; `O=C(Nc1ccc(F)cc1)c1oc2ccccc2c1NC(=O)C12CC3CC(CC(C3)C1)C2`: -2.02%; `COc1ccc(CCNC(=O)c2ccc3c(c2)N(Cc2c(F)cccc2Cl)C(=O)CS3)cc1OC`: -16.7%.
As for `O=C(Nc1cc(Cl)cc(Cl)c1)c1ccc(F)c(S(=O)(=O)N2CCc3ccccc32)c1`, the figure is 27.9%; as for `Cc1nn2c(-c3cccc(NC(=O)c4ccccc4)c3)nnc2c2ccccc12`, 0.158%; as for `COc1ccc(CNC(=O)c2ccc(N3CCCC3)c(NC(=O)NCc3ccc(C)cc3)c2)cc1`, 13.4%.
Regarding `Cc1c(NC(=S)NC(=O)CCc2ccccc2)c(=O)n(-c2ccccc2)n1C`, the inhibition is active: 40.2%.
Next, `CCc1cccc(NC(=O)Nc2csc3c2CCCC3)c1`: -4.92%; `O=C(CN1C(=O)CCc2cc(S(=O)(=O)N3CCOCC3)ccc21)NCc1ccc(F)cc1`: -5.03%.
Next, `O=C(COc1ccccc1F)Nc1ccc(-c2nc3ccccc3s2)cc1`: -16%.
Regarding `Cc1ccc(CNC(=O)c2ccc3c(c2)nc(C)n3-c2cc(C)cc(C)c2)cc1`, the inhibition was -6.68%.
Next, `COc1cccc(NC(=O)CNC(=O)Cn2c(C)cc3ccccc3c2=O)c1`: -9.7%.
Next, `Cc1ccc(N(CC(=O)NCCc2ccccc2)S(=O)(=O)N(C)C)cc1`: -9.92%; `CC(C(=O)N1CCc2ccccc21)N(C)CC(=O)Nc1cccc(F)c1` (stereo not drawn): active: 38.9%; `N#Cc1ccccc1NC(=O)Cn1cnc2onc(-c3cccc(F)c3)c2c1=O`: 2.74%.
For `CCCCOc1ccc(C(=O)Nc2ccc(-c3nc4ccccc4s3)cc2C)cc1`, the inhibition is -15.5%.
`COc1cc(C)ccc1OCCSc1nc2ccc(NC(=O)c3ccc(F)cc3)cc2s1`: the inhibition turned out to be 9.43%.
Next, `CCC1CCCCN1CCCNC(=O)c1cc2c(Cl)nc3ccccc3c2s1` (stereo not drawn): -5.56%; `Cc1ccc(C)n1-c1nnc(N2CCCC(C(=O)Nc3ccc(C(C)C)cc3)C2)s1` (stereo not drawn): -6.51%; `COC(=O)c1ccccc1NC(=O)Cn1c(=O)n(Cc2ccc(C(=O)NCc3ccc4c(c3)OCO4)cc2)c(=O)c2ccccc21`: -19.7%.
For the molecule `CCOC(=O)c1c(C)oc2ncnc(Nc3ccc(OCC)cc3)c12`, the inhibition was -13%.
As for `Cc1ccc(C)c(N2C(=O)N(Cc3cc(=O)n4ccccc4n3)c3ccccc3S2(=O)=O)c1`, the figure is 4.49%; as for `COc1cccc(Oc2nc(-c3ccccc3O)nc3ccccc23)c1`, active: 43.1%; as for `CCCn1c(-c2ccc(S(=O)(=O)N3CCOCC3)cc2)csc1=Nc1ccc(OCC)cc1`, -0.45%.
Next, `CC(C)Cn1c(=O)c2ccccc2n2c(CCC(=O)N3CCN(c4ccccc4F)CC3)nnc12`: -12.7%.
Next, `Cc1ccc2nc(-c3ccc(O)cc3)c(Nc3ccc4c(c3)OCCO4)n2c1`: 2.94%.
As to `CCCSCCCNC(=O)C1CCN(c2nn3cc(-c4ccc(F)cc4)nc3s2)CC1`, the inhibition was found to be 26.5%.
Next, `O=C(NCc1ccccc1Cl)C(=O)NCC(c1cccs1)S(=O)(=O)c1cccs1` (stereo not drawn): -21.8%; `CCn1cc(C(=O)N2CCN(c3cccc(Cl)c3)CC2)c(=O)c2cc(S(=O)(=O)N3CCCCC3)ccc21`: 20.2%; `COc1ccc(OC)c(NC(=O)Cn2c(=O)n(Cc3ccccc3)c(=O)c3ccccc32)c1`: 5.83%.
In the case of `COc1ccc(OC)c(NC(=O)N2CCN(S(=O)(=O)c3ccc4c(ccn4C)c3)CC2)c1`, the inhibition is -14.8%.
On to `COc1ccc(C(CNC(=O)c2oc3ccc(C)cc3c2C)N2CCOCC2)cc1` (stereo not drawn), for which the inhibition is 0.557%.
As for `CCN1CCN(c2c(S(=O)(=O)c3ccc(OC)cc3)cnc3cc(OC)c(OC)cc23)CC1`, the figure is 3.1%; as for `Cc1c(C(=O)NCc2ccccc2Br)oc2c1-c1[nH]ncc1CC2`, 11%.
Next, `CCc1ccc(S(=O)(=O)c2nnn3c2nc(NC2CCCCCC2)c2sccc23)cc1`: 6.75%; `COc1cccc2c1Oc1ncccc1N(C(=O)Nc1ccc(F)c(Cl)c1)C2`: -0.823%.
Consider `CCOC(=O)C(CC)Sc1ccc2nnc(CCNS(=O)(=O)c3ccc(C)cc3)n2n1` (stereo not drawn), for which the inhibition is -0.128%.
As for `CCOCCCNC(=O)C1CCC(CNS(=O)(=O)c2ccc(NC(C)=O)cc2)CC1` (stereo not drawn), the inhibition is -0.947%.
On to `Cc1ccc(C)c(CN2C(=O)c3ccccc3S(=O)c3ccc(C(=O)NCc4ccccc4)cc32)c1` (stereo not drawn), for which the inhibition was 1.83%.
`COc1ccc(NC(=O)c2ccc(-c3nc(CSc4ccccc4)c(C)o3)cc2)cc1OC`: the inhibition was -6.13%.
Next, `COc1cc(OC)c(C2=Nc3ccc(Br)cc3C(c3ccccc3)N2CC(=O)NN)cc1OC` (stereo not drawn): active: 78.5%.
For the molecule `COc1ccccc1Cc1nc2ccccc2[nH]c1=O`, the inhibition was -3.2%.
On to `Cc1cc(C)cc(NS(=O)(=O)c2ccc3c(c2)NC(=O)C(C)S3)c1` (stereo not drawn), for which the inhibition was -3.31%.
For `CCn1c(C(=O)N2CCC(C(=O)NCCc3ccc(OC)cc3OC)CC2)cc2sccc21`, the inhibition is 6.46%.
Turning to `CCOC(=O)c1c(C)oc2nc(C)nc(Nc3ccc(CC)cc3)c12`, the inhibition came to 9.04%.
Regarding `COc1ccc(NC(=O)C2CCC(=O)N2S(=O)(=O)c2ccc(C)cc2)cc1Cl` (stereo not drawn), the inhibition was active: 33.6%.
As for `CCN(CC)CCNC(=O)c1ccc2c(c1)sc1nc(-c3ccc(F)cc3)cn12`, the inhibition amounted to 0.322%.
Next, `CCCCSc1ncnc2c1c(-c1ccccc1)cn2-c1cccc(F)c1`: -5.4%.
`CCN(CC)S(=O)(=O)c1nnc(NC(=O)COc2ccc(Cl)cc2)s1`: the inhibition was -22.9%.
Next, `CC(C)=N/N=c1\scc(C)n1Cc1ccco1`: active: 39.9%.
Turning to `CC(=O)Nc1cc(NC(C)=O)cc(-c2nc3ccccc3[nH]2)c1`, the inhibition is 2.49%.
Consider `COc1ccc(C(CNC(=O)COc2ccc(Cl)c(C)c2)N2CCOCC2)cc1` (stereo not drawn), for which the inhibition was 9.74%.
Next, `CCOC(=O)Cn1cnc2onc(-c3ccc(F)cc3)c2c1=O`: -18.5%; `CCOC(=O)c1cc2c(=O)n3ccccc3nc2n(CCCOC)c1=NC(=O)C(C)Oc1ccccc1` (stereo not drawn): 7.35%.
Turning to `COc1ccc(CNC(=O)CN(c2ccccc2)S(=O)(=O)N(C)C)cc1`, the inhibition was 6.44%.
Next, `O=C(CSc1ncc(-c2ccc(F)cc2)n1Cc1ccco1)Nc1ccc2c(c1)OCO2`: active: 36.6%; `CC1CCN(C(=O)Cn2c(=O)oc3cc(S(=O)(=O)N4CCCCC4)ccc32)CC1`: 7.67%.
On to `Cc1ccc(CNC(=O)c2ccc(Cn3c(SCc4ccccc4F)nc4cccnc43)cc2)cc1`, for which the inhibition is -0.457%.
On to `CN(C)S(=O)(=O)c1ccc(C(=O)N2CC(=O)Nc3ccc(Br)cc3C2c2ccc(F)cc2)cc1` (stereo not drawn), for which the inhibition was -14.4%.
Next, `CCOc1cc(CNc2ccc(O)cc2)ccc1OCc1ccc(Cl)cc1`: -8.22%; `CCN1CCN(c2c(S(=O)(=O)c3ccc(C)c(C)c3)cnc3cc(OC)c(OC)cc23)CC1`: 2.18%.
Regarding `Cc1cccc(-n2c(=O)c3c4c(sc3n3cnnc23)CCCC4)c1`, the inhibition was -11.5%.
As for `CCN(CC)C(=O)c1sc2c(c1C)c(=O)n(-c1ccccc1)c(=O)n2CC(=O)Nc1ccc(C)cc1C`, the figure is 1.05%; as for `Cc1cc(C)cc(NC2=CC(c3cccc(F)c3)N(c3cc(C)cc(C)c3)C2=O)c1` (stereo not drawn), -7.5%.
Next, `Cc1cc(=O)n(Cc2cccc(Cl)c2)c2c1c(C)nn2-c1ccccc1`: -6.42%; `CCCCC(CC)CNC(=O)CCCn1c(=O)[nH]c2ccsc2c1=O` (stereo not drawn): -13.8%; `COc1cc(-c2nc(Cn3nnc(C(=O)Nc4cc(C)cc(C)c4)c3C)c(C)o2)cc(OC)c1OC`: -6.28%.
As for `COc1ccc(C)cc1Nc1nc(-c2cccc(Cl)c2)c2c(n1)-c1ccccc1OC2`, the figure is 6.79%.
